# Hit rate of the full screen: of about 400,000 compounds, about 2,200 (0.55%) were called active. This list was built around the results that the source calls inconclusive (neither active nor inactive); the mix of calls is not that of the screen. Calls come from the whole dose curve; as a rule, active = well fitted inhibition curve with a large enough effect; inconclusive = small, poorly fitted or top-dose-only effect, or another doubt; inactive = no such curve, though single readings can be large or run the other way. Where the call is inconclusive, the potency comes from a doubtful curve fit.
# Target: DNA polymerase kappa (Homo sapiens) (UniProt Q9UBT6)
# Sequence of UniProt Q9UBT6 (Q9UBT6 whole entry, looked up): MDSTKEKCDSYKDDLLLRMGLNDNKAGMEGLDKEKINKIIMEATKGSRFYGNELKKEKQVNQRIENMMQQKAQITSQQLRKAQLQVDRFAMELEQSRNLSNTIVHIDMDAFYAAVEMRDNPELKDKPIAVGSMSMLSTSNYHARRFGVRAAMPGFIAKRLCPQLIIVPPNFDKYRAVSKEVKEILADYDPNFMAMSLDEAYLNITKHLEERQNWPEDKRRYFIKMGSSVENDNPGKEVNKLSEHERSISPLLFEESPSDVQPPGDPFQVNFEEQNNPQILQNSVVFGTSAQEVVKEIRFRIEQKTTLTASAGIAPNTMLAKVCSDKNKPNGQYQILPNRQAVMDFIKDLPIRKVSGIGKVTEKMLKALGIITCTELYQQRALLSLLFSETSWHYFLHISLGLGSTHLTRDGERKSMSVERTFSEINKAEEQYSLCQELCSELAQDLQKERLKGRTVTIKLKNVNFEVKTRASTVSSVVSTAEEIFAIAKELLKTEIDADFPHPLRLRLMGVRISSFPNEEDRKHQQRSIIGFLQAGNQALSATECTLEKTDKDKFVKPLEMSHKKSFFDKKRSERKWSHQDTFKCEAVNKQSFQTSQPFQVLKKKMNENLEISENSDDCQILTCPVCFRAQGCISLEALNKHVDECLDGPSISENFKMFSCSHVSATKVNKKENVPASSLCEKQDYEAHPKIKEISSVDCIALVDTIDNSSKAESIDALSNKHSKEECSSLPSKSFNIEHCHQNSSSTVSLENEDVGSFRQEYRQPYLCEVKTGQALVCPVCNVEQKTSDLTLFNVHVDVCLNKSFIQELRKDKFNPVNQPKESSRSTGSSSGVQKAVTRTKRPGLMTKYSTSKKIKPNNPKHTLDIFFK
# Test: qHTS for Inhibitors of Polymerase Kappa
# Details: purified Pol kappa, fluorescent DNA synthesis assay, 10 min; series mostly up to 107 µM; activity, negative = inhibition: at the top concentration
# Outline: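 50 nM final substrate added after 15 min RT preincubation of 10 nM Pol kappa with compound; fluorescence read at 0 and 10 min.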
# % is set by controls: 0 for no effect and ±100 for the full control effect; potency is the fitted concentration of half-maximal effect; tags give direction and shape of the fitted curve.
Structure (SMILES),"activity, negative = inhibition",Potency
COc1ccc(C2/C=C\C(c3ccc(OC)cc3)N(Cc3ccc(F)cc3)C(=O)C(=O)N2Cc2ccc(F)cc2)cc1 (configuration not stated),inactive: -2.4% [at 60.1 µM],
COc1cc(/C=C2\SC(=S)N(C(Cc3ccccc3)C(=O)O)C2=O)ccc1O (configuration not stated),,"inconclusive: 79.4 µM [inhibitor, partial curve, poor fit]"
N/C(=C\C(=O)c1cc(Cl)ccc1O)C(Cl)(Cl)Cl,inactive: 0%,
CCCCCCCCCC[n+]1ccc(/C=C/c2c[nH]c3ccccc23)c2ccccc21,,"inconclusive: 56.2 µM [inhibitor, partial curve, poor fit]"
CC1=NN(c2ccccc2)C(=O)C1/C=C1\NC(=S)NC1=O (configuration not stated),,active: 25.1 µM
CCOc1ccccc1NC(=O)CSc1ccc(-c2ccco2)nn1,inactive: -23.3%,
COc1ccccc1NC(=O)c1ccc(-c2nc(COc3ccc(C)cc3)c(C)o2)cc1,inactive: -8.26%,
COc1ccc2cc3cc(C(=O)N4CCN(c5ccccn5)CC4)oc3nc2c1,inactive: 9.3%,
Cc1c(C(=O)O)cccc1-c1ccc(C=O)o1,,"inconclusive: 89.1 µM [inhibitor, single point]"
CC(OC(=O)/C(C#N)=C/c1ccc(N(C)C)cc1)C(=O)N(C)Cc1ccccc1 (configuration not stated),,"inconclusive: 20 µM [inhibitor, full curve, poor fit]"
CN(Cc1ccccc1)c1ccc(/C=C/c2sc3ccccc3[n+]2C)cc1,inactive: 0%,
COCCNc1nc(-c2cccc(NS(C)(=O)=O)c2)nc2ccccc12,,active: 25.1 µM
S=c1[nH]nc(-c2cc(-c3ccccc3)n[nH]2)n1/N=C/c1ccc(Br)s1,,"inconclusive: 89.1 µM [inhibitor, partial curve, poor fit]"
COCCNS(=O)(=O)c1ccc2c(c1)Cc1cc(S(=O)(=O)NCCOC)ccc1-2,,"inconclusive: 20 µM [inhibitor, partial curve, poor fit]"
O=C(CSc1ccc(-c2cccnc2)nn1)Nc1ccccc1,,"inconclusive: 89.1 µM [inhibitor, single point]"
O=C1SC(SCc2ccccc2)=N/C1=C\c1ccco1,,active: 31.6 µM
O=C(O)c1cccc(-c2ccc(/C=c3/sc4nc5ccccc5n4c3=O)o2)c1,,active: 22.4 µM
C#CCSc1nsc(SCC#C)c1C#N,,"inconclusive: 56.2 µM [inhibitor, partial curve, poor fit]"
Cc1ccc(-c2onc(C)c2C)cc1S(=O)(=O)NCc1ccco1,inactive: -8.39%,
O=C(Nc1nnc(SCc2ccc(F)cc2)s1)C1Cc2ccccc2CN1C(=O)c1ccco1 (configuration not stated),,"inconclusive: 100 µM [inhibitor, single point]"
COc1cccc(OCCCCn2c(-c3ccc(Cl)cc3)nc3ccccc3c2=O)c1,,"inconclusive: 100 µM [inhibitor, single point]"
Nc1ccc2nc[nH]c2c1,,"inconclusive: 70.8 µM [inhibitor, partial curve, poor fit]"
O=C(NCCNCc1ccccc1)c1ccco1,,"inconclusive: 89.1 µM [inhibitor, single point]"

Structure (SMILES),"activity, negative = inhibition",Potency
CC(C)CN=Cc1c(O)c([N+](=O)[O-])cc2oc3c(c12)CCCC3,,"inconclusive: 79.4 µM [inhibitor, partial curve]"
Oc1ccc(/C=N/Nc2cc(N3CCCC3)nc(N3CCCC3)n2)cc1O,,"inconclusive: 39.8 µM [inhibitor, partial curve, poor fit]"
CC1=NN(c2cc(Cl)c(S(=O)(=O)O)cc2Cl)C(=O)C1,,"inconclusive: 89.1 µM [inhibitor, partial curve, poor fit]"
NC[C@@H]1O[C@H](C23CC4CC(CC(C4)C2)C3)Cc2c1ccc(O)c2O,,"inconclusive: 37.7 µM [inhibitor, single point]"
Cc1ccc(SCC(=O)c2ccc(CC(=O)O)s2)cc1,,"inconclusive: 89.1 µM [inhibitor, partial curve, poor fit]"
CC(Oc1cccc([N+](=O)[O-])c1)C(=O)NCCC1=CCCCC1 (configuration not stated),inactive: -11.2%,
O=C(O)C(c1ccccc1)N1C(=O)/C(=C\c2ccc(-c3ccc(Br)cc3)o2)SC1=S (configuration not stated),,"inconclusive: 22.4 µM [inhibitor, single point]"
CCCCC(CC)COC(=O)CC(C(=O)OCC(CC)CCCC)S(=O)(=O)O (configuration not stated),,"inconclusive: 33.6 µM [inhibitor, single point]"
COc1cc(NC(=O)c2cc(Cl)c(OC)c(Cl)c2)ccc1NC(=O)c1cc2ccccc2o1,inactive: 8.21%,
O=C(O)COc1ccccc1/C=C1\SC(=S)N(NC(=O)c2ccccc2O)C1=O,,active: 31.6 µM
Cc1cccc(N(CC(=O)Nc2ccc(Br)cc2)S(C)(=O)=O)c1C,inactive: -2.44% [at 60.1 µM],
O=C(O)c1cc(-c2ccco2)nc2cc3ccccc3cc12,,active: 79.4 µM
O=C1c2nccnc2C(=O)N1Cc1ccccc1,,"inconclusive: 50.1 µM [inhibitor, partial curve, poor fit]"
COc1cc2c(C=O)c3c4c(cc(OC)c(OC)c4c2cc1OC)CCN3C,,"inconclusive: 7.08 µM [inhibitor, partial curve, poor fit]"
COc1ccc(CNC(=O)COc2cc(O)c3c(c2)OC(C)(C)CC3=O)cc1,inactive: -7.81%,
COC(=O)CCCC1=CC2=CC(=O)C(C)(OC(=O)c3cccs3)C(=O)C2=CN1CCc1c[nH]c2ccccc12 (configuration not stated),,"inconclusive: 89.1 µM [inhibitor, partial curve, poor fit]"
Nc1ncc([N+](=O)[O-])cc1S(=O)(=O)c1ccccc1,inactive: 1.1%,
Cc1cc(-c2csc(NC(=O)c3ccc(=O)n(C)n3)n2)c(C)n1CC1CCCO1 (configuration not stated),,"inconclusive: 79.4 µM [inhibitor, single point]"
CC(C)S(=O)(=O)c1nsc2nc(=O)c(/C=C3\C=Nc4ccccc43)c(N)n12,,"inconclusive: 89.1 µM [inhibitor, partial curve, poor fit]"
N#CCC(=O)Nc1ccc(C(=O)OCC(=O)c2ccc3c(c2)NC(=O)CO3)cc1,,"inconclusive: 56.2 µM [inhibitor, partial curve, poor fit]"
C=CCOc1ccc(/C=C/C(=O)OCC(=O)NCCC2=CCCCC2)cc1,,"inconclusive: 25.1 µM [inhibitor, partial curve, poor fit]"
Cc1ccc2c(c1)c1c3n2CCN(C(=O)CN2CCN(C)CC2)C3CCC1 (configuration not stated),inactive: -18.1%,
CCCCCCC[n+]1ccc(/C=C/c2c(C)[nH]c3ccccc23)c2ccccc21,,"inconclusive: 89.1 µM [inhibitor, single point]"

Structure (SMILES),"activity, negative = inhibition",Potency
O=C(O)c1cc(N/N=C/c2ccc(N3CCOCC3)cc2)ccc1Cl,,"inconclusive: 79.4 µM [inhibitor, single point]"
Cc1cc(C)n(-c2ccc(Oc3ccccc3)c(S(=O)(=O)O)c2)n1,inactive: -30.5%,
CCOCCCNC(=O)c1c[nH]c2ccc(S(=O)(=O)Nc3cccc(Cl)c3C)cc2c1=O,,"inconclusive: 89.1 µM [inhibitor, single point]"
O=C(C1COc2ccccc2O1)N1CCc2ccccc21 (configuration not stated),,"inconclusive: 89.1 µM [inhibitor, single point]"
COc1ccccc1C(=O)NCC1(N2CCN(C)CC2)CCCCC1,inactive: -10.9%,
COc1cccc(C(=O)NC2C(=O)N3C(C(=O)O)=C(COC(C)=O)CSC23)c1 (configuration not stated),,"inconclusive: 79.4 µM [inhibitor, single point]"
COc1ccc(-c2nn(-c3ccccc3)cc2/C=C2/SC(=S)N(CCCC(=O)O)C2=O)c(C)c1,,"inconclusive: 44.7 µM [inhibitor, partial curve]"
COc1cccc(/C=N/NC(=O)c2[nH]nc3c2CCc2ccccc2-3)c1,,"inconclusive: 89.1 µM [inhibitor, partial curve, poor fit]"
Cc1cc(NC(=O)COC(=O)c2oc3c(Cl)cccc3c2C)no1,,"inconclusive: 89.1 µM [inhibitor, single point]"
O=C(Nc1ccccc1)c1oc2ccccc2c1NC(=O)C1CC1,inactive: -6.77%,
Cc1cccc(/C=C/C(=O)c2cc(Br)ccc(=O)c2O)c1,,"inconclusive: 0.708 µM [inhibitor, full curve, poor fit]"
CC(C)(C)OC(=O)C[C@H]1C/C=C\C[C@H](CC(=O)N[C@@H](CO)Cc2ccccc2)C(=O)N[C@H](C(C)(C)C)COC1=O,inactive: -0.837%,
O=C1Nc2c(Cl)cc(Cl)cc2C1=O,,"inconclusive: 89.1 µM [inhibitor, single point]"
COc1cc(/C=N\NC(=O)c2ccc(-c3ccccc3)cc2)cc(OC)c1O,,"inconclusive: 63.1 µM [inhibitor, partial curve, poor fit]"
O=C(CSc1nnc(SCc2ccccc2)s1)N/N=C/C=C/c1ccco1,,active: 25.1 µM
O=C(NN=C1CCN(Cc2ccccc2)CC1)c1cc2ccccc2cc1O,,"inconclusive: 89.1 µM [inhibitor, single point]"
O=C(O)c1ccccc1NS(=O)(=O)c1ccc(NNC(=S)Nc2ccc(OC(F)F)cc2)c([N+](=O)[O-])c1,,"inconclusive: 89.1 µM [inhibitor, single point]"
Cc1c(C(=O)Nc2ccc(S(=O)(=O)Nc3ncccn3)cc2)oc2ccccc12,,"inconclusive: 79.4 µM [inhibitor, single point]"
CN(C)c1ccc(/C=C/c2nc3ccccc3c(=O)n2-c2ccc(C(=O)O)cc2)cc1,,"inconclusive: 100 µM [inhibitor, single point]"
Nc1ccc(S(=O)(=O)Nc2nc3ccccc3o2)cc1,,"inconclusive: 56.2 µM [inhibitor, partial curve, poor fit]"
C=C(CC[C@]12OC(C(=O)O)C(O)(C(=O)O)C(C(=O)O)(O1)C(OC(=O)/C=C/[C@@H](C)C[C@@H](C)CC)C2O)[C@@H](OC(C)=O)[C@H](C)Cc1ccccc1 (some centres not stated),,active: 79.4 µM

# Source: PubChem BioAssay AID588579 (National Center for Advancing Translational Sciences (NCATS), 2011)
